# Data taken from the supplement of paper PMC12217912.
# The other results are listed elsewhere or left out. Sequences were assembled here from the parent chain. Values near 0.05 are background.
# B1: TEV protease; numbered along this chain (parent)
# chain: MGESLFKGPRDYNPISSSICHLTNESDGHTTSLYGIGFGPFIITNKHLFRRNNGTLVVQSLHGVFKVKDTTTLQQHLVDGRDMIIIRMPKDFPPFPQKLKFREPQREERICLVTTNFQTKSMSSMVSDTSCTFPSGDGIFWKHWIQTKDGQCGSPLVSTRDGFIVGIHSASNFTNTNNYFTSVPKNFMELLTNQEAQQWVSGWRLNADSVLWGGHKVFMVKPEEPFQPVKEATQL
# Variants of: B1
# Experiment: raw area under fraction-flipped curve 0-4 h after induction (AUC4h, not background-subtracted), DNA-recorder readout of cleavage of the substrate (dimensionless); higher = more cleavage of the substrate by the protease variant
# Settings: temperature: 34 °C; time window: 0-4 h after rhamnose induction
# Experimental: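 In vivo DNA recorder in E. coli TOP10(DE3) ΔrhaA at 34 °C. Each TEVp single-site mutant (parent TEVp 0) is paired with a single-site variant of the 7-mer TEVs (canonical ENLYFQ|S). The substrate sits between flexible linkers in a Bxb1-sfGFP-TEVs-SsrA fusion, so cleavage stabilises Bxb1 and speeds flipping of a recombination array, read by NGS. The value is the raw area under the fraction-flipped curve over 0-4 h after rhamnose induction (AUC4h), with ≥20 reads per time point. It is not background-subtracted; inactive controls average about 0.047.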
# 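Further: Bxb1 expression induced with 0.2% (w/v) L-rhamnose at OD600 near 0.5, cultures sampled hourly, flipped fraction per protease–substrate barcode pair counted by paired-end Illumina sequencing.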
Variant,area with substrate EALYFQS,area with substrate ECLYFQS,area with substrate EDLYFQS,area with substrate EGLYFQS,area with substrate EILYFQS,area with substrate EMLYFQS,area with substrate EPLYFQS,area with substrate EQLYFQS,area with substrate ERLYFQS,area with substrate ESLYFQS,area with substrate ETLYFQS,area with substrate EYLYFQS,area with substrate EELYFQS,area with substrate EFLYFQS,area with substrate EHLYFQS,area with substrate EKLYFQS,area with substrate ELLYFQS,area with substrate EVLYFQS,area with substrate EWLYFQS
I43V,0.0897,0.119,0.106,0.111,0.0972,0.123,0.119,0.13,0.102,0.0978,0.111,0.0854,,,,,,,
T44L,0.0613,0.0624,0.0697,0.0579,0.0652,0.0659,0.0714,0.0664,0.0635,0.0631,0.0554,0.0721,0.0496,0.0646,0.0605,0.0488,0.075,0.0574,0.0658
T44Q,0.0371,0.0405,,0.0525,0.0311,0.0438,0.0361,0.0378,0.0501,0.0328,,0.0346,0.0434,0.0418,0.0361,0.0451,,,0.0491
N45D,0.0629,0.0577,0.0645,0.062,0.0637,0.0628,0.0577,,0.0522,0.0637,,0.0586,0.0626,0.0558,0.0551,0.0567,0.0646,0.0561,0.0545
N45Q,0.0685,0.0526,0.0636,0.0386,0.059,0.0285,,0.0596,0.0516,0.0566,,,0.0505,,0.0508,0.0406,0.0526,0.0511,0.0583
N45S,0.0948,0.0688,,0.0322,0.0768,,0.0851,0.0809,,0.0686,0.0695,0.0898,0.0884,0.0732,0.0848,,,,
K46E,0.0604,0.0725,0.0793,0.0497,0.0464,0.06,0.0509,0.0572,0.0539,0.0624,,0.053,0.052,0.0692,0.0423,0.0553,0.047,0.0525,0.0527
K46F,0.0664,0.0693,0.119,,0.0559,0.0636,0.0871,0.0892,0.0724,0.0747,,,,,0.0691,,,0.0627,0.0541
K46R,0.132,0.0871,0.133,,0.092,0.095,0.12,0.0672,0.0795,0.091,0.118,0.099,0.123,0.0975,0.101,0.0537,0.0752,0.0993,0.0817
H47A,0.0641,0.0708,0.0641,,0.0577,0.0749,,,0.0485,0.0527,,0.0426,0.0552,,,,0.0423,,0.0662
H47R,0.0668,0.056,0.0785,0.0723,0.0647,,0.0536,0.0635,0.0635,,,0.0636,0.0621,0.0299,,,0.0721,0.0651,0.0411
L48H,0.0523,0.0457,0.0677,0.0606,,0.0725,0.0582,0.0587,0.0559,0.059,,0.0374,,,0.145,0.0532,,0.0566,
F49H,0.0619,0.0539,,0.0626,,,,0.0643,,0.0641,0.0696,0.0572,0.0747,,,0.0646,,0.0421,
R50L,0.129,0.136,0.191,,0.0977,,,,,0.14,,0.119,0.137,0.112,0.173,,0.114,0.105,
R51C,0.119,0.115,,0.0999,0.0811,0.117,0.0559,0.122,0.126,0.102,,,0.138,,0.12,0.104,,0.0991,
R51M,0.117,0.126,0.154,,0.0886,,,0.143,0.126,0.0901,,0.109,0.13,,0.127,0.105,0.114,0.096,
N52F,0.0688,0.0674,0.055,,0.055,0.0703,0.0795,0.0643,0.0636,0.0707,0.0604,,0.0664,,,0.0542,0.0699,0.0621,
N52M,0.0387,0.0803,,0.0553,0.0538,0.0382,,0.0691,0.0675,0.0568,,0.0654,0.0371,,,,,0.0654,
N52S,0.071,0.0617,0.0989,0.0693,0.0689,0.0912,0.0742,0.0741,0.0999,0.074,0.103,,0.0793,0.115,0.0699,0.0679,,0.0867,
N52T,0.116,0.0801,0.0664,0.0799,0.067,0.0876,0.0738,0.091,0.0779,0.0711,,,0.0989,,0.0765,0.0722,0.0728,0.0812,0.0672
N52Y,0.0926,0.0692,0.0804,0.064,0.0617,0.0696,,0.116,0.0642,0.0779,,0.0693,0.0735,0.0653,0.0851,0.0798,0.0549,0.0621,
N53A,0.106,0.088,0.134,0.0872,0.0798,0.0888,0.116,0.122,0.0844,0.0888,,,0.0406,,0.0862,0.089,0.0692,0.0781,0.0715
N53G,0.0819,0.0825,0.115,0.0838,0.0937,0.0892,,0.0978,0.0908,0.0911,0.103,0.0765,0.102,0.0901,0.068,0.121,0.0954,0.0841,0.0837
T55E,0.124,0.101,,,0.101,0.105,0.117,0.127,0.0965,,0.102,,0.115,0.0891,0.141,0.0953,0.113,0.0905,0.115
